Some of the results follow. At the low end of the ranking the order means little.

This experiment has as its target T1, GST-Rok (full length) (UniProt O34857).
T1 sequence: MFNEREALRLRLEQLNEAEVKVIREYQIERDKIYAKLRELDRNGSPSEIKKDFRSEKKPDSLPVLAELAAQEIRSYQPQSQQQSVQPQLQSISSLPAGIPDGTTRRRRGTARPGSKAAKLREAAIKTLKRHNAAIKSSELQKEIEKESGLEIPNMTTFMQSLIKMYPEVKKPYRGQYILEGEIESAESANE
The experiment is described as follows: protein binding microarray.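 Note: rank score from −0.5 (least bound) to 0.5 (best bound).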 Particulars: Rok is a gene silencer of Bacillus subtilis; high values mean tight binding; most listed sequences are background and not binding sites; double strand, one strand shown.
CTGGGTAA returned a binding signal of 0.0274 E-score.

As for CCACCAGG, the binding signal is -0.294 E-score.

Take AAGAGTCA: the binding signal came out at 0.0182 E-score.

With ATGGACCC, the binding signal is -0.163 E-score.

AGTTGGAA gave a binding signal of 0.0449 E-score.

In turn, ATAGTTGA returned a binding signal of 0.228 E-score.

On to CACTTTAA, for which the binding signal was 0.034 E-score.

The sequence AGGCGTTA yielded a binding signal of -0.053 E-score.

CACTCTGG registered a binding signal of 0.0912 E-score.

GCATGACA came in with a binding signal of -0.0957 E-score.

With CTCGTGGC, the binding signal is -0.35 E-score.

For ACATGCGT, the binding signal is -0.0467 E-score.

TCGTGAGA displayed a binding signal of 0.0707 E-score.

As to GACTCCCA, the binding signal was -0.295 E-score.

ATACGCGA yielded a binding signal of 0.227 E-score.

Turning to TCAATTAA, the binding signal is 0.0259 E-score.

GCAAGTAA gave a binding signal of -0.0735 E-score.

On to CGCGACCC, for which the binding signal is -0.182 E-score.

For ACATCTAG, the binding signal stood at 0.325 E-score.

In turn, CATATAAG came in with a binding signal of 0.119 E-score.

For AGCGGTAG, the binding signal was 0.34 E-score.

On to AGGCGTAC, for which the binding signal is -0.03 E-score.

In the case of GCATAACA, the binding signal came out at 0.0745 E-score.

Turning to GTAATTGA, the binding signal is 0.246 E-score.

With AAAGCATT, the binding signal was -0.0355 E-score.

Sequence GCAATAGC returned a binding signal of 0.0689 E-score.

For the sequence AATTCTGG, the binding signal came to 0.0055 E-score.

With CGTTAGAC, the binding signal is -0.16 E-score.

ACCAGGGC yielded a binding signal of -0.375 E-score.

CAGCCTGA returned a binding signal of -0.0561 E-score.

Consider ACCGCAAC, for which the binding signal came to 0.157 E-score.

In turn, ACCTTATG came in with a binding signal of -0.0134 E-score.

ATAGTAAG gave a binding signal of 0.282 E-score.

Regarding CTCTGATA, the binding signal is 0.0316 E-score.

Consider CGCTTGTA, for which the binding signal came to 0.0549 E-score.

Turning to GGCAAGAC, the binding signal is -0.137 E-score.

The sequence GCGCGAGA displayed a binding signal of 0.0171 E-score.

The sequence CGAGAACA gave a binding signal of 0.102 E-score.

Turning to AACGTTGC, the binding signal was 0.0348 E-score.

Consider ATTTCTAC, for which the binding signal amounted to 0.408 E-score.

CGTAGTAG registered a binding signal of 0.204 E-score.

The sequence GATCACCA gave a binding signal of 0.00574 E-score.

Regarding AGGAACAA, the binding signal was -0.0452 E-score.

With ATACTATC, the binding signal worked out at 0.378 E-score.

Consider GTTCACTA, for which the binding signal came out at 0.0803 E-score.

For the sequence AGGCTAAT, the binding signal was -0.155 E-score.

In turn, AGTGCAGC returned a binding signal of -0.0662 E-score.

As for AAAAACCT, the binding signal stood at 0.138 E-score.

In turn, GGCGCAAC displayed a binding signal of -0.209 E-score.

As for GCCAAATA, the binding signal is 0.101 E-score.

CATATTAG returned a binding signal of 0.236 E-score.

Turning to ACACTGGG, the binding signal was -0.228 E-score.

In turn, CAGAACTC displayed a binding signal of 0.0708 E-score.

AGTTAGTC showed a binding signal of 0.194 E-score.

GTGATAGA had a binding signal of 0.265 E-score.

Take AGGGTCGC: the binding signal was -0.258 E-score.

For ACCAGGTA, the binding signal was -0.0276 E-score.

ATTGCAAA: the binding signal was -0.0471 E-score.

The sequence AGGTCTCC yielded a binding signal of -0.288 E-score.

As to AATGGCGT, the binding signal was -0.0647 E-score.

As to GAGCTGAC, the binding signal is -0.206 E-score.

GGCCGCGA returned a binding signal of -0.245 E-score.

On to AGGAGCCG, for which the binding signal is -0.288 E-score.

For CGGTCTGA, the binding signal is -0.189 E-score.

With CTGAAGCA, the binding signal is -0.0371 E-score.

CATCAACC came in with a binding signal of -0.0593 E-score.

For the sequence ATAAAGCG, the binding signal was -0.0211 E-score.

On to GAAGATAC, for which the binding signal was 0.269 E-score.

Sequence CTGAACAA returned a binding signal of -0.00856 E-score.

In turn, AATAGGCC registered a binding signal of -0.158 E-score.

ATTGTGGC came in with a binding signal of 0.00688 E-score.

Regarding AGATCTGA, the binding signal came out at 0.018 E-score.

Consider CTGGGACA, for which the binding signal is -0.244 E-score.

GTTGTGTA: the binding signal turned out to be 0.169 E-score.

AAATTCCA showed a binding signal of 0.114 E-score.

With GCTACAGC, the binding signal is 0.0848 E-score.

For the sequence GAGTCAGA, the binding signal is -0.186 E-score.

CAAAGACA: the binding signal is -0.0086 E-score.

For the sequence CACTTGTA, the binding signal was 0.25 E-score.

The sequence CCCAGCAC yielded a binding signal of -0.363 E-score.

AGGTATCC: the binding signal came out at 0.0603 E-score.

CCAGCACC had a binding signal of -0.323 E-score.

ACGTGCAC: the binding signal amounted to 0.0174 E-score.

Take AATCGGGT: the binding signal is 0.0327 E-score.

For AACCACAA, the binding signal was 0.00862 E-score.

The sequence CATCCCCA yielded a binding signal of -0.187 E-score.

Sequence GGCCCGCA had a binding signal of -0.327 E-score.

CAGGAAAC came in with a binding signal of -0.00112 E-score.

GGGGTAGA showed a binding signal of 0.011 E-score.

In turn, CCGTATTA gave a binding signal of 0.149 E-score.

Take AAAATCCC: the binding signal is 0.0234 E-score.

In the case of CTCACGAA, the binding signal is -0.0439 E-score.

Take AGTGAGTG: the binding signal came out at 0.024 E-score.

On to GCTGGAAC, for which the binding signal is -0.0525 E-score.

Sequence GTGACGTA had a binding signal of 0.0931 E-score.

The sequence CCAGTCTA yielded a binding signal of -0.0147 E-score.

Regarding AACCCCTG, the binding signal is -0.182 E-score.

CATCGAAC displayed a binding signal of -0.0803 E-score.

GGCCCTTA came in with a binding signal of -0.342 E-score.

Sequence CCGTCGGA showed a binding signal of -0.215 E-score.

Regarding ACATACCT, the binding signal worked out at 0.264 E-score.

Turning to AACTAGTC, the binding signal stood at 0.206 E-score.

The sequence CAGGCGCA gave a binding signal of -0.188 E-score.

With GGTCGTTA, the binding signal is -0.0111 E-score.

ATACGTGG showed a binding signal of 0.0378 E-score.

CAAAACAC showed a binding signal of -0.0304 E-score.

The sequence CTGCAAGC came in with a binding signal of -0.184 E-score.

For the sequence GAAGCCGC, the binding signal is -0.372 E-score.

The sequence GTCCGGAA showed a binding signal of -0.166 E-score.

ATCGAATG: the binding signal is 0.094 E-score.

On to CTCTTCAC, for which the binding signal was -0.113 E-score.

CTATTCCA registered a binding signal of 0.165 E-score.

ATGACCGC had a binding signal of -0.193 E-score.

CAACTTCG yielded a binding signal of -0.00652 E-score.

ATAAAACC had a binding signal of 0.242 E-score.

Take ACTCGTTC: the binding signal is 0.0843 E-score.

GACTCCAA: the binding signal is -0.0812 E-score.

ACAACAAA registered a binding signal of 0.0529 E-score.

GAGTGCGA displayed a binding signal of -0.104 E-score.

The sequence ACCCGGGC had a binding signal of -0.403 E-score.

On to AACCTTAC, for which the binding signal is 0.0321 E-score.

On to GCGATTAA, for which the binding signal was -0.124 E-score.

GCTACAGA displayed a binding signal of 0.101 E-score.

Regarding CAAGGCAC, the binding signal was -0.288 E-score.

GTGGCAGA returned a binding signal of -0.113 E-score.

Consider ACCTGCAA, for which the binding signal was -0.346 E-score.

Turning to CATGCCCA, the binding signal is -0.186 E-score.

Regarding CGGTCGAA, the binding signal was -0.0538 E-score.

As to CGAGTTTA, the binding signal came out at 0.185 E-score.

As to CACCCATG, the binding signal was -0.23 E-score.

On to GAACTGAA, for which the binding signal was -0.118 E-score.

The sequence AATTGATA yielded a binding signal of 0.253 E-score.

For the sequence TATCTAAA, the binding signal worked out at 0.287 E-score.

The sequence GTGTACAC yielded a binding signal of -0.0962 E-score.

The sequence CGCCGTTC registered a binding signal of -0.15 E-score.

ACTGTCCC yielded a binding signal of -0.17 E-score.

In the case of CGTCGTTA, the binding signal is 0.122 E-score.

AACAACCT: the binding signal was -0.198 E-score.

GTCGCTTA displayed a binding signal of -0.0639 E-score.

Consider GGCAAGAA, for which the binding signal was -0.0956 E-score.

Sequence CGGAGATA gave a binding signal of 0.248 E-score.

For the sequence CTTCTTGC, the binding signal is -0.257 E-score.

With CGAGGCGC, the binding signal is -0.268 E-score.

As for AGGGGAAC, the binding signal was -0.211 E-score.

In the case of GTACCCCA, the binding signal was -0.278 E-score.

Consider GTGCCATA, for which the binding signal was 0.075 E-score.

AATGCTCC returned a binding signal of -0.0721 E-score.

In turn, ACCTATCG came in with a binding signal of 0.161 E-score.

AGGCGTGC gave a binding signal of -0.13 E-score.

For the sequence GGCCTCAA, the binding signal was -0.352 E-score.

Sequence AACCCGTC returned a binding signal of -0.122 E-score.

Turning to CTACAATC, the binding signal came to 0.214 E-score.

Regarding CGCTCCCA, the binding signal is -0.389 E-score.

Consider AGGACGCC, for which the binding signal is -0.321 E-score.

In the case of TACGCGAA, the binding signal came to 0.147 E-score.

Regarding GAGTAAGC, the binding signal was 0.134 E-score.

As for AACTCGAG, the binding signal came out at 0.176 E-score.

CACATATA: the binding signal stood at 0.261 E-score.

CGTTCTAC: the binding signal is 0.25 E-score.

Sequence GGACGAAA came in with a binding signal of -0.118 E-score.

The sequence AGATGGCT came in with a binding signal of -0.166 E-score.

Regarding CGCGCAAG, the binding signal worked out at 0.154 E-score.

As for GTACCGAC, the binding signal is -0.0213 E-score.

GGCAACGA returned a binding signal of -0.0721 E-score.

Regarding CACCTTAA, the binding signal was -0.045 E-score.

CTCTACCC had a binding signal of -0.141 E-score.

CGTAGGAG gave a binding signal of -0.138 E-score.

As for ACGTGGCC, the binding signal is -0.276 E-score.

ATCGGAGC: the binding signal is -0.182 E-score.

ATTTACGA showed a binding signal of 0.303 E-score.

CGAAGTTA returned a binding signal of 0.168 E-score.

AGCTAACA registered a binding signal of 0.0607 E-score.

The values are drawn from publication PMC6212790.
